# Assay results: the supplement of paper PMC11348887
# Counter-ions that a name gives are not always drawn. The list shows a part of the results. No stated cut-off is given here; in the data, active = -2 or less and inactive = the rest. Repeats are few or missing, and single values can be far off.
# Tested on: hPSC-derived cortical neurons (WA09)
# Experiment: nuclei number (viability) z-score; higher = more surviving cells
# Conditions: 5 µM; treatment: days 7-14 after plating, readout day 21
# 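Further: nuclei counted from DAPI counterstain by automated high-content image analysis, four fields per well at ×20 in 384-well plates, with sequential b-score then z-score normalization.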
row,SMILES,nuclei number (z-score)
1,O=C(O[C@H]1C[N+]2(CCCOc3ccccc3)CCC1CC2)C(O)(c1cccs1)c1cccs1 [Aclidinium Bromide],inactive: -0.497
2,CN[C@@H]1C[C@H]2O[C@@](C)([C@@H]1OC)n1c3ccccc3c3c4c(c5c6ccccc6n2c5c31)C(=O)NC4 [Staurosporine],active: -3.88
3,CC[C@@H]1/C=C/C=C/C[C@H](C)[C@H](O)[C@](C)(O)C(=O)[C@H](C)[C@@H](O)[C@H](C)C(=O)[C@H](C)[C@@H](O)[C@H](C)/C=C/C(=O)O[C@H]2[C@@H](C)[C@@H](CC1)O[C@@]1(CC[C@@H](C)[C@@H](C[C@H](C)O)O1)[C@@H]2C [Oligomycin A],active: -3.16
4,Cc1cc(SCc2sc(-c3ccc(C(F)(F)F)c(F)c3)nc2C)ccc1OCC(=O)O,inactive: -0.15
5,CC(C)(C)[C@]1(O)CC2OC(=O)CC23C(=O)OC2OC(=O)[C@H](O)C231 (some centres undefined) [Bilobalide],inactive: -0.3
6,C/C(=C\c1csc(C)n1)[C@@H]1C[C@@H]2O[C@]2(C)CCC[C@H](C)[C@H](O)[C@@H](C)C(=O)C(C)(C)[C@@H](O)CC(=O)O1 [Epothilone B (EPO906_ Patupilone)],inactive: 1.34
7,C=CC[C@]1(O)CC[C@H]2[C@@H]3CCC4=CC(=O)CCC4=C3C=C[C@@]21C [Altrenogest],inactive: 0.0917
8,COC[C@H]1OC(=O)c2coc3c2[C@@]1(C)C1=C(C3=O)[C@@H]2CCC(=O)[C@@]2(C)C[C@H]1OC(C)=O [Wortmannin],inactive: -1.01
9,Cc1cccc(C(C)c2c[nH]cn2)c1C (centres undefined) [Medetomidine HCl],inactive: -0.109
10,C=C[C@H]1CN2CC[C@H]1C[C@H]2[C@H](O)c1ccnc2ccccc12 [Cinchonidine],inactive: -0.281
11,COc1ccc2c(c1)[C@]13CCCC[C@@H]1[C@H](C2)N(C)CC3 [Dextromethorphan hydrobromide hydrate],inactive: 0.67
12,CN1[C@@H]2CC(O)C[C@H]1[C@@H]1O[C@@H]12 (some centres undefined) [Scopine],inactive: 0.418
13,CC1(C)CC(O)CC(C)(C)N1[O] [Tempol],inactive: 0.829
14,O=S(=O)(CC1CS1)c1ccc(Oc2ccccc2)cc1 (centres undefined),inactive: 0.535
15,CC(=O)OC(C)(C)/C=C/C(=O)[C@](C)(O)[C@H]1[C@H](O)C[C@@]2(C)[C@@H]3CC=C4[C@H](C[C@H](O)C(=O)C4(C)C)[C@]3(C)C(=O)C[C@]12C [Cucurbitacin B],active: -5.91
16,O=c1[nH]c2ccccc2n1CCCN1CCC(n2c(=O)[nH]c3cc(Cl)ccc32)CC1 [Domperidone],inactive: -0.0897
17,c1cc2c(cc1[C@H]1OC[C@H]3[C@@H]1CO[C@@H]3c1ccc3c(c1)OCO3)OCO2 [Sesamin],inactive: 0.319
18,CC[C@H]1CN2CC[C@H]1C[C@@H]2[C@@H](O)c1ccnc2ccc(OC)cc12 [Hydroquinidine],inactive: -0.486
19,COc1ccc(CN2CCNCC2)c(OC)c1OC [Trimetazidine dihydrochloride],inactive: -0.346
20,Cc1cc(O)ccc1Cl [Chlorocresol],inactive: 3.97
21,NCCc1ccc(S(=O)(=O)F)cc1,inactive: 2.54
22,Fc1cc(F)c2c(c1)[C@H]1C=CC[C@H]1C(c1cccnc1)N2 (some centres undefined) [Golgicide A],active: -3.51
23,CN1[C@@H]2CC[C@H]1C[C@@H](OC(=O)[C@H](CO)c1ccccc1)C2 [Hyoscyamine],active: -7.75

row,SMILES,nuclei number (z-score)
1,Nc1nc(N)nc(NC2CC2)n1 [Cyromazine],inactive: -0.0925
2,N=C(N)NN [Aminoguanidine hydrochloride],inactive: 0.99
3,O=[N+]([O-])/C=C/c1ccc2c(c1)OCO2 [MNS (3_4-Methylenedioxy-_-nitrostyrene_ MDBN)],inactive: -0.33
4,CC(C)N(CCC(C(N)=O)(c1ccccc1)c1ccccn1)C(C)C (centres undefined) [Disopyramide Phosphate],inactive: 1.77
5,O=[N+]([O-])O[C@@H]1CO[C@H]2[C@@H]1OC[C@@H]2O [Isosorbide Mononitrate],inactive: 0.221
6,C[N+](C)(C)CCCCCCCCCC[N+](C)(C)C [Decamethonium Bromide],inactive: -0.0114
7,O=C(O)CNC(=O)c1c(O)c2ccccc2n(Cc2ccccc2)c1=O,inactive: -0.352
8,CC(=O)OC1CN2CCC1CC2 (centres undefined) [Aceclidine HCl],inactive: 0.269
9,CC[C@@]1(O)C(=O)OCc2c1cc1n(c2=O)Cc2cc3ccccc3nc2-1 [Camptothecin],inactive: -0.498
10,CC(C)=CCC[C@]1(C)C=Cc2c(O)c3c(c(CC=C(C)C)c2O1)O[C@]12C(=C[C@@H]4C[C@H]1C(C)(C)O[C@@]2(C/C=C(/C)C(=O)O)C4=O)C3=O [Gambogic Acid],active: -7.63
11,CCNC(=O)C[C@@H]1N=C(c2ccc(Cl)cc2)c2cc(OC)ccc2-n2c(C)nnc21,active: -3.69
12,CN1c2ccccc2C(NCCCCCCC(=O)O)c2ccc(Cl)cc2S1(=O)=O (centres undefined) [Tianeptine sodium],inactive: 0.387
13,C[C@H]1CCC/C=C/[C@@H]2C[C@H](O)C[C@H]2[C@H](O)/C=C/C(=O)O1 [Brefeldin A],active: -7.66
14,COc1cc(-n2c(=S)[nH]c3ccccc3c2=O)c(Cl)cc1Cl [Mdivi-1],inactive: 2.86
15,CCCN1C[C@H](CSC)C[C@@H]2c3cccc4[nH]cc(c34)C[C@H]21 [Pergolide mesylate],inactive: 0.908
16,CC(=O)Nc1ccc(Cc2ccc(NC(C)=O)cc2)cc1,inactive: 1.68
17,CC1=C(O)C(=O)C=C2C1=CC=C1[C@@]2(C)CC[C@@]2(C)[C@@H]3C[C@](C)(C(=O)O)CC[C@]3(C)CC[C@]12C [Celastrol],inactive: -0.733
18,O=C(O)CCCc1ccc(N(CCCl)CCCl)cc1 [Chloroambucil],inactive: 0.0963
19,CC[C@@H](C(N)=O)N1CCCC1=O [Levetiracetam],inactive: 0.482
20,COc1ccc(C(=O)N2CCCC2=O)cc1 [Aniracetam],inactive: 2.37
21,O=C(O[C@H]1C[C@H]2CC[C@@H](C1)[N+]21CCCC1)C(O)(c1ccccc1)c1ccccc1 [Trospium chloride],inactive: 5.36
22,CN(C)Cc1c[nH]c2ccccc12 [Gramine],inactive: -0.92
23,NC(=O)C[S@@+]([O-])C(c1ccccc1)c1ccccc1 [Armodafinil],inactive: -0.193

row,SMILES,nuclei number (z-score)
1,NC(=O)CN1CC(O)CC1=O (centres undefined) [Oxiracetam],inactive: -0.0522
2,COc1cc([C@@H]2c3cc4c(cc3[C@H](O)[C@H]3COC(=O)[C@@H]23)OCO4)cc(OC)c1OC [Picropodophyllin (PPP)],active: -4.75
3,CN1CCC(c2c[nH]c3ccc(O)cc23)CC1,inactive: -1.14
4,C1=C2CCCN[C@H]2[C@@H]2C[C@H]1[C@H]1CCCCN1C2 [Aloperine],inactive: 0.142
5,CCOC(=O)c1cncn1[C@H](C)c1ccccc1 [Etomidate],inactive: 1.85
6,CCN1CCN(C(=O)Cc2ccc(Nc3ncc(F)c(Nc4ccc(C(=O)Nc5ccccc5Cl)cc4)n3)cc2)CC1 [Aurora A Inhibitor I],inactive: -1.75
7,"CN1CCc2cc3c(cc2C1C1OC(=O)c2c1ccc1c2OCO1)OCO3 (single isomer, unassigned; (+)) [(+)-Bicuculline]",inactive: 0.0263
8,CC(O)(CS(=O)(=O)c1ccc(F)cc1)C(=O)Nc1ccc(C#N)c(C(F)(F)F)c1 (centres undefined) [Bicalutamide],inactive: 0.557
9,C=C1CC[C@@]2(O)[C@H]3Cc4ccc(O)c5c4[C@@]2(CCN3CC2CC2)[C@H]1O5 [Nalmefene HCl],inactive: 0.67
10,O=c1cccc2n1C[C@@H]1CNC[C@H]2C1 [Cytisine],inactive: 4.32
11,NCC1(CC(=O)O)CCCCC1 [Gabapentin HCl],inactive: 0.0107
12,NCC1(CC(=O)O)CCCCC1 [Gabapentin],inactive: 2.35
13,O=C(O)c1nn(Cc2ccc(Cl)cc2Cl)c2ccccc12 [Lonidamine],inactive: 1.88
14,Cc1cc(C(C#N)c2ccc(Cl)cc2)c(Cl)cc1NC(=O)c1cc(I)cc(I)c1O (centres undefined) [Closantel],inactive: 2.52
15,Cc1cc(C(C#N)c2ccc(Cl)cc2)c(Cl)cc1NC(=O)c1cc(I)cc(I)c1O (centres undefined) [Closantel Sodium],inactive: 0.0693
16,CC(C)(C)c1cc(C=C(C#N)C#N)cc(C(C)(C)C)c1O [Tyrphostin 9],inactive: 1.35
17,c1ccc([C@@H]2C[C@H]2NC2CCNCC2)cc1,inactive: 0.634
18,COc1ccc(CC2NCCc3cc(OC)c(OC)cc32)cc1OC (centres undefined) [Tetrahydropapaverine HCl],inactive: -0.36
19,C[C@]12CC[C@H](O)CC1=CC[C@@H]1[C@@H]2CC[C@]2(C)C(=O)CC[C@@H]12 [Dehydroepiandrosterone (DHEA)],inactive: 0.178
20,O=C(O)CNC(=O)C1C(=O)N(C2CCCCC2)C(=O)N(C2CCCCC2)C1=O,inactive: 0.193
21,CC(C)OC(=O)[C@H](C)N[P@](=O)(CO[C@H](C)Cn1cnc2c(N)ncnc21)Oc1ccccc1 [Tenofovir Alafenamide (GS-7340)],inactive: -0.767
22,O=[N+]([O-])c1ncc[nH]1 [Azomycin],inactive: -0.68
23,CC[C@H](C)[C@@H]([C@@H](CC(=O)N1CCC[C@H]1[C@H](OC)[C@@H](C)C(=O)N[C@H](C)[C@@H](O)c1ccccc1)OC)N(C)C(=O)[C@@H](NC(=O)[C@@H](NC)C(C)C)C(C)C [Monomethyl auristatin E (MMAE)],active: -5.46
